Data on 45 compounds can be found in the supplement of paper PMC10600219.

Structures can show the parent of a compound that is named as a salt. Whole data set: some 2,800 compounds, median “cell viability relative to vehicle” near 0.98, cut for the lowest 2% near 0.45. The list shows a part of the results.

The experiment relates to NCI-H2228 alectinib-DTP. The experiment is described as follows: cell viability relative to vehicle (fraction of vehicle); NCI-H2228 is an ALK-positive lung cancer line and DTP means drug-tolerant persister; higher = less growth inhibition. The settings on record: 100 nM; treatment time 6 days. The gist of the method: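 Values give cell viability as a fraction of vehicle-treated cells. Parental and drug-tolerant persister NCI-H2228 cells (persisters made with 1000 nM of a targeted drug for 13 days) were exposed in 384-well plates to the 3114-agent TargetMol anti-cancer compound library at 100 nM, with DMSO as vehicle. ATP was then read after 6 days by the CellTiter-Glo 3D Cell Viability Assay.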
`COc1cc(OC)c(/C=C/S(=O)(=O)Cc2ccc(OC)c(OP(=O)(O)O)c2)c(OC)c1` [Briciclib] came in with a cell viability of 0.554.

In turn, `COc1ccc(COc2ccc(Cc3cnc(N)nc3N)cc2OC)cc1` yielded a cell viability of 1.

`CCNC(=O)c1cc2c(-c3cc(C(C)(C)O)ccc3Oc3c(C)cc(F)cc3C)cn(C)c(=O)c2[nH]1` yielded a cell viability of 0.855.

Compound `Cc1cc([N+](=O)[O-])ccc1NS(=O)(=O)c1cc(Cl)ccc1Cl` returned a cell viability of 0.953.

`CC(C)(C)[Si](C)(C)Oc1ccc2oc(=O)c3c(c2c1)CCCN3` came in with a cell viability of 0.959.

The compound `COc1ccc2[nH]cc(CCNC(C)=O)c2c1` [Melatonine] showed a cell viability of 1.04.

In the case of `O=C([O-])c1ccccc1O.[Na+]` [Sodium salicylate], the cell viability was 1.02.

Turning to `C=CC[C@@H]1/C=C(\C)C[C@H](C)C[C@H](OC)[C@H]2O[C@@](O)(C(=O)C(=O)N3CCCC[C@H]3C(=O)O[C@H](/C(C)=C/[C@@H]3CC[C@@H](O)[C@H](OC)C3)[C@H](C)[C@@H](O)CC1=O)[C@H](C)C[C@@H]2OC` [Tacrolimus], the cell viability came to 0.731.

For `CC(C)=CCc1cc(-c2coc3cc(O)ccc3c2=O)ccc1O` [Neobavaisoflavone], the cell viability turned out to be 1.22.

Compound `CC(C)N1CCN(c2ccc(OCC3COC(Cn4cncn4)(c4ccc(Cl)cc4Cl)O3)cc2)CC1` (stereo not given) [Terconazole] displayed a cell viability of 1.04.

Turning to `CN1C2CCCC1CC(NC(=O)c1nn(C)c3ccccc13)C2` (stereo not given) [Granisetron hydrochloride], the cell viability was found to be 1.05.

`O=S(=O)(CCC(F)=C(F)F)c1ncc(Cl)s1` [Fluensulfone] showed a cell viability of 0.998.

On to `COc1cc2c(cc1OC)[C@@H](Cc1ccc(O)c(Oc3cc4c(cc3OC)CCN(C)[C@@H]4Cc3ccc(O)cc3)c1)N(C)CC2` [Liensinine], for which the cell viability is 1.08.

Compound `CC(=O)O/N=C1\C(=O)N(Cc2cc(Cl)ccc2Cl)c2ccc(Cl)cc21` came in with a cell viability of 1.14.

Take `CCN(CC)CC#CCOC(=O)C(O)(c1ccccc1)C1CCCCC1` (stereo not given) [Oxybutynin hydrochloride]: the cell viability came to 1.1.

With `O=C(Cc1cccc(OC(F)(F)F)c1)Nc1ccc(CCCCc2nnc(NC(=O)Cc3ccccn3)s2)nn1`, the cell viability is 0.819.

In the case of `Cc1ncc([N+](=O)[O-])n1CCO` [Metronidazole], the cell viability stood at 1.08.

Turning to `CNC(=O)Nc1cc(Oc2cncc(C)c2)c(-c2ccc(OCC(C)(C)O)nc2)cn1`, the cell viability came out at 0.91.

Compound `Cc1nc(Nc2ccc(F)cc2)nc(N2CCc3ccccc3C2C)c1C` (stereo not given) [Revaprazan hydrochloride] gave a cell viability of 0.852.

The compound `CCN(Cc1ccncc1)C(=O)C(CO)c1ccccc1` (stereo not given) [Tropicamide] registered a cell viability of 1.03.

`CC(C)=CCc1c(O)cc2oc3cc(O)c(O)c(CC=C(C)C)c3c(=O)c2c1O` [gamma-Mangostin] gave a cell viability of 0.878.

`C[C@H]1O[C@@H](O[C@H]2CC[C@@]3(C)[C@@H](CC[C@]4(C)[C@@H]3C=C[C@]35OC[C@@]6(CCC(C)(C)C[C@H]63)[C@@H](O)C[C@]54C)[C@]2(C)CO)[C@H](O)[C@@H](O[C@@H]2O[C@H](CO)[C@@H](O)[C@H](O)[C@H]2O)[C@H]1O` [Saikosaponin A]: the cell viability was 0.961.

The compound `C[C@@H]1C(=O)O[C@H](C)[C@H]1C[C@@H](O)[C@](C)(O)[C@H]1CC[C@@]2(O)C3=CC(=O)[C@@H]4C[C@@H](O)[C@@H](O)C[C@]4(C)[C@H]3CC[C@]12C` [Cyasterone] returned a cell viability of 0.907.

As to `C[C@@]1(CO)C[C@@H](O)C[C@@]2(C)[C@@H]3CC[C@](C)([C@@H](O)CO)C=C3CC[C@H]12` [Kirenol], the cell viability worked out at 1.16.

For `CCCCc1nc2ccc(NC(=O)NC3CCCCC3)cc2n1Cc1ccc(-c2ccccc2C(=O)O)cc1`, the cell viability worked out at 1.16.

Turning to `CO[C@@H]1[C@@H](OC(N)=O)[C@@H](O)[C@H](Oc2ccc3c(O)c(NC(=O)c4ccc(O)c(CC=C(C)C)c4)c(=O)oc3c2C)OC1(C)C` [Novobiocin Sodium], the cell viability turned out to be 1.18.

`CN(NC(=O)CC(=O)NN(C)C(=S)c1ccccc1)C(=S)c1ccccc1` [Elesclomol] returned a cell viability of 0.8.

With `O=C(O[C@H]1CN2CCC1CC2)N1CCc2ccccc2[C@@H]1c1ccccc1` [Solifenacin succinate], the cell viability worked out at 0.949.

Compound `NC(=O)N/N=C/c1ccc([N+](=O)[O-])o1` [Furacilin] gave a cell viability of 1.14.

Regarding `O=S(=O)(c1ccccc1)c1cnc2c(N3CCNCC3)cccc2c1`, the cell viability was 0.902.

`COc1ccc(C2(CNC(=O)c3ccc(NC(=O)c4ccco4)cc3)CCOCC2)cc1`: the cell viability worked out at 0.919.

For `CC(C)C[C@H](NC(=O)[C@H](CCc1ccccc1)NC(=O)CN1CCOCC1)C(=O)N[C@@H](Cc1ccccc1)C(=O)N[C@@H](CC(C)C)C(=O)[C@@]1(C)CO1` [Carfilzomib], the cell viability was found to be 0.116.

On to `COc1cc(OC)c(C=C2C(=O)Nc3ccccc32)c(OC)c1`, for which the cell viability was 0.882.

Take `CN1CCCC(n2nc(Cc3ccc(Cl)cc3)c3ccccc3c2=O)CC1` (stereo not given) [Azelastine hydrochloride]: the cell viability was 1.03.

`COC(=O)C1=CO[C@@H](O[C@@H]2O[C@H](CO)[C@@H](O)[C@H](O)[C@H]2O)[C@@H]2[C@@H](C)[C@@H](O)C[C@H]12` [Loganin] gave a cell viability of 1.02.

On to `N[C@H]1C(O)O[C@H](CO)[C@@H](O)[C@@H]1O` (stereo not given in full) [Glucosamine], for which the cell viability was determined as 1.16.

The compound `COC1=CC(c2cc3ccccc3[nH]2)=N/C1=C\c1[nH]c(C)cc1C` [Obatoclax Mesylate] displayed a cell viability of 0.904.

The compound `CC(C)C[C@@H](C=O)NC(=O)[C@H](CC(C)C)NC(=O)[C@H](CC(C)C)NC(=O)OCc1ccccc1` came in with a cell viability of 0.489.

Regarding `CC(C)(C#N)c1ccc(N2C(=O)OCc3cnc4ccc(-c5cnc6ccccc6c5)cc4c32)cc1`, the cell viability is 0.925.

For the compound `CCN(CC)Cc1ccc2cc(COC(=O)Nc3ccc(C(=O)NO)cc3)ccc2c1` [Givinostat hydrochloride monohydrate], the cell viability was determined as 0.963.

Turning to `CC(=O)Oc1cccc2c1C(=O)c1c(OC(C)=O)cc(C(=O)O)cc1C2=O` [Diacerein], the cell viability came out at 1.05.

`CCOC(=O)c1ccc(OCCC2CCN(c3ccc(C)nn3)CC2)cc1` [Pirodavir]: the cell viability turned out to be 0.959.

`O=C(Nc1ncc([N+](=O)[O-])s1)c1ccccc1O` [Tizoxanide] registered a cell viability of 0.88.

Take `N=C(N)NC(=N)N1CCOCC1` [Moroxydine hydrochloride]: the cell viability worked out at 0.951.

Compound `Nc1ccc(C(=O)NCC(=O)O)cc1` [4-Aminohippuric Acid] gave a cell viability of 0.954.
